Data taken from the supplement of paper PMC11417369.
± gives the standard deviation of the averaged measurements. This is one part of the list.

Test system: PfAP2-I AP2 domain 3 (GST-tagged)
Assay: gcPBM binding intensity (ln(normalized median fluorescence intensity)); higher = stronger DNA binding
Procedure, shortened: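 The binding buffer was 1× PBS containing 1% milk, 0.2 mg/ml BSA, 0.5% salmon testes DNA and 0.03% Triton X-100. In it, GST-tagged P. falciparum DNA-binding domains expressed in E. coli were applied for 1 h to an Agilent 4 × 180k array of primer-extended double-stranded 36-bp intergenic genomic probes plus negative controls. Binding intensity, read with Alexa488 anti-GST antibody and a 488 nm scan, is the highest Masliner-normalised natural-log median intensity across replicate spots of either probe orientation.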

Row | Sequence | gcPBM binding intensity (ln)
1 | TATAATATATTCATGTGTACATATATTTCGAACATA [XGTACX_site1754] | 8.01 ± 0.2
2 | CGAAAAATATGTATGAGTACTTATATTTAAACTATA [XGTACX_site1911] | 7.57 ± 0.29
3 | ATGTCATAAAAACATATACACACTTGAAATATAAAA [CACACA_site2329] | 7.76 ± 0.57
4 | CATTCCTATTATTATACACACAAATTAAGAATTCAA [CACACA_site787] | 7.85 ± 0.47
5 | TATGTTTCTATATATACATGCAAGAAGAAATGTACT [TGCATGCA_site891] | 7.98 ± 0.78
6 | ATATGTACAAATTATACACACATGTACAATTATATA [CACACA_site1253] | 8.07 ± 0.39
7 | AAAAAAAAAAAAGAAAAATATATATATAAATAAATA [GTGCAC_negctrl_site569] | 7.43 ± 0.33
8 | ATGTCACAATTTTTCACACACAAAATTTATATACAT [CACACA_site2030] | 8.04 ± 0.71
9 | AAATAAAGAAATGCAAGTACATACTAAACTAATCCA [XGTACX_site1209] | 7.61 ± 0.45
10 | TCTTAAATTATGATAAAATATAATAAATAAATAAAT [CACACA_negctrl_site1520] | 7.67 ± 0.73
11 | TTGTTTTATACATAGTGTACATATAAAAATTTTTTT [XGTACX_site7549] | 8.03 ± 0.2
12 | ATATATATTATAATCTGTACATAAATATATAATAAA [XGTACX_site5425] | 7.81 ± 0.35
13 | ATATATAAATATGAAACACACATTCTATTTAATTCG [CACACA_site1450] | 7.55 ± 0.46
14 | CAGATAAATAAACACACACACACATATATATATATA [CACACA_site9311] | 9.28 ± 0.38
15 | ATTTTCCCTAGAATATGTACACATAGTAAATATTAT [XGTACX_site7499] | 7.76 ± 0.42
16 | ATAATATAAATATACACACACACATATATATATATA [CACACA_site2905] | 9.26 ± 0.47
17 | TAATAAGGAATTTATAGTACATATTCATATGTTTTA [XGTACX_site2331] | 7.17 ± 0.35
18 | ATAAAAATTTATATATGTACTTAATTTTTAATTTTT [XGTACX_site7482] | 7.64 ± 0.3
19 | TATGTTTTTGAATGAGTGCATTAAAATAAAACATTT | 11.3 ± 0.61
20 | TTCTTGTATATTCATAGTACATATAATGTCGTGTTA [XGTACX_site8991] | 7.75 ± 0.47
21 | GTTAATATTTTTGGGGGTACTTAAAAAAAAAAAAAA [XGTACX_site1477] | 9.29 ± 0.26
22 | AATTTAAAAAATAATTGTACAAAAAAAAAAAATCAG [XGTACX_site4576] | 8.12 ± 0.3
23 | TTACATACAATTGGTGTGCACATATATATATATATA | 10.29 ± 0.049

Row | Sequence | gcPBM binding intensity (ln)
24 | GAATATTAATTCAAGTGTACAAATATATATATAATT [XGTACX_site5103] | 7.76 ± 0.53
25 | CAAAAGGATAGGCACACACACACACCGATATATATA [CACACA_site8685] | 8.39 ± 0.55
26 | ACTTATTTCGATATGTGTACTTAATATATATATTTA [XGTACX_site6616] | 7.89 ± 0.39
27 | AAAAATATTTTGGTTTGTACATATATTTTTACAATA [XGTACX_site8691] | 7.65 ± 0.44
28 | ATTTTTGTAATTATTTGTACACATTTATTTATGTGT [XGTACX_site1864] | 7.85 ± 0.42
29 | AGACCTTTAATTTGTGTGCACATAATTAGTGTACAT [GTGCAC_site9434] | 9.96 ± 0.16
30 | ATTAAAAAAAAAAAAAGTACTTATAATTATACTCGT [XGTACX_site4852] | 7.59 ± 0.43
31 | TTCAAATTGTTTATATGTACTTATAAAAATTGTCTG [XGTACX_site977] | 7.68 ± 0.38
32 | ACAAATAAAAATATTACACACACTATTATATTGATA [CACACA_site1494] | 7.74 ± 0.6
33 | TTATATTATATATATGTGCACATTTTTAAACTTGGA | 9.58 ± 0.38
34 | AAATATTTATATGTTACACACTGTTGATAATTTTCT [CACACA_site1347] | 7.49 ± 0.79
35 | GGAAGATGAAAAATAAAGCATGTGCTGTACAAACGA [CACACA_negctrl_site1625] | 8.96 ± 0.38
36 | ATTCACATACATTACTTACACACCATATTAATATAT [CACACA_site459] | 8.21 ± 0.88
37 | TAAAAAATAAGATATACACACATATATATATATATA [CACACA_site2324] | 9.39 ± 0.28
38 | TAACATATTAATAACATATTTATAATATATTAATAA [TGCATGCA_negctrl_site243] | 7.11 ± 0.42
39 | AAAAAAAAAAAAAAGGAACACACAAGTAACAATAAA [CACACA_site8792] | 8.11 ± 0.45
40 | AATTATACTTCCTTCACACAGTTACATCATATATTA [CACACA_site5942] | 8.23 ± 0.54
41 | AAAATCGTGTTCTGAATACACACTAATACAAAGTTG [CACACA_site3985] | 7.68 ± 0.57
42 | AAAAATACCTGAATATGTACATATGATCAATGGGCC [XGTACX_site887] | 7.72 ± 0.74
43 | ATTCATATATATTATACACACACATATATAAATATA [CACACA_site8228] | 8.09 ± 0.5
44 | AAATAAAATAAAAACATGCACACTTTATTTTTTTTA [CACACA_site2800] | 8.54 ± 0.55
45 | AGAAGTTTAAAAAGCACACAAAAAAAAAAAAAAAGA [CACACA_site3309] | 8.38 ± 0.26
46 | TAAAAATATAAATTTTGTACGTAAAAAATGGTTCTT [XGTACX_site1506] | 7.71 ± 0.55

Row | Sequence | gcPBM binding intensity (ln)
47 | TGACCGTTTTAAGAGTGTACAAAAAAAAAAAAAAAA [XGTACX_site4141] | 8.29 ± 0.67
48 | TATTCTATATAATAATGTACGTGATTTAAATTTTCA [XGTACX_site6650] | 7.74 ± 0.45
49 | CATATTTGTTGACACACACACATATTTATATAAATA [CACACA_site7648] | 8.15 ± 0.39
50 | GGGAGGATATTACACAGTACCCAGAAAATCTACGGA [XGTACX_site2551] | 8.08 ± 0.27
51 | TTTATATGTTTAAAATGTACATGTGGTAAAAATTTT [XGTACX_site5907] | 8.33 ± 0.3
52 | TATTCCTTATTATAATTCTTAAATAAAAAAAAAAAA [TGCATGCA_negctrl_site45] | 7.85 ± 0.58
53 | ATATATAAACTGAAGGGTACAATGAAAAAAGAACTT [XGTACX_site7219] | 8 ± 0.73
54 | TAGGATTTTTAGTTTATTGTAACTATTATTTTATTT [CACACA_negctrl_site829] | 7.22 ± 0.61
55 | CCCATTATTGTTGGGGGTACAATTTTGAATATATAT [XGTACX_site2227] | 9.34 ± 0.085
56 | ATATATTTATAATACACATGCAATGATATAATATAT [TGCATGCA_site20] | 8.43 ± 0.75
57 | CATATATACATATATACACACATATATATATATATA [CACACA_site645] | 9.28 ± 0.73
58 | GTGTGGTTACAGACACGAACACATTTTTTAAATATT [CACACA_negctrl_site83] | 7.83 ± 0.28
59 | GTAAGAAAGAAAGGAAGTACGTAAGAAAGTAAGAAC [XGTACX_site1239] | 8.49 ± 0.84
60 | TTTTTTTTTCTGTGAGTGCATGTAATAAAATAAATT [GTGCAC_site9740] | 9.305 ± 0.049
61 | TTAATTAGAAATCATACACACATATATATATATATA [CACACA_site173] | 9.48 ± 0.5
62 | CATTCAAACAAAAAAAGTACTCATCACATAATATAT [XGTACX_site1251] | 7.87 ± 0.3
63 | GCAAAATATTTAAAATAATATATGTGTATATTTTTA [GTGCAC_negctrl_site149] | 7.18 ± 0.43
64 | TTTATATTGTTTTATTGTACATATATATTTATACAT [XGTACX_site6821] | 7.83 ± 0.56
65 | AAAAAAAAAAAAAAACTTACGATTTTAAAAAGATGG [GTGCAC_negctrl_site291] | 8.14 ± 0.64
66 | GAAATGTACAAATACGTACACACATATATATATATA [CACACA_site1541] | 9.29 ± 0.27
67 | AAATATATGAATAAATGTACGAAATGAATGGATGAA [XGTACX_site7108] | 8.1 ± 0.7
68 | AAACATGTATTTTATTGTACACATTCATAAATCACA [XGTACX_site1420] | 8.13 ± 0.36
69 | TTATAATCTTATATATGTACATATATATATTATTAT [XGTACX_site7780] | 7.56 ± 0.33

Row | Sequence | gcPBM binding intensity (ln)
70 | TACATGTATGTAATATGTTTTATTTTTTTCATCTCT [XGTACX_negctrl_site79] | 7.21 ± 0.4
71 | TTTTAAATATGCAGATGTACATTATAATGTTTTATT [XGTACX_site2079] | 7.88 ± 0.29
72 | TACATATTTTTATATACACACAATAATTATTATAAA [CACACA_site1659] | 7.83 ± 0.39
73 | TATATTTATTATAACACACACATATATATATTATAT [CACACA_site1061] | 7.91 ± 0.31
74 | GATATGTACTAATACACACACATATAGATTTATATA [CACACA_site6610] | 8.06 ± 0.33
75 | TGTTTGAATAACAAAAAAAAAAAAAAAATTAAAAAA [CACACA_negctrl_site1332] | 7.42 ± 0.59
76 | ATTTTAAATGTTATGCGTACATATTAATCCTACTTA [XGTACX_site1344] | 7.99 ± 0.33
77 | TTTTAAAAATCTATATGTACACAATACGTCTATAAA [XGTACX_site5787] | 8.08 ± 0.26
78 | TATGAAAATGTTCATACACACATAAAAAAAAAAAAA [CACACA_site3236] | 7.91 ± 0.38
79 | TACACATACACATACACACGCATAGAAACATACGAA [CACACA_site2137] | 8.04 ± 0.45
80 | AAAAAAAAAAAAAACACACAAACGCTTTTTTTTTTT [CACACA_site686] | 8.4 ± 0.93
81 | TTATTTACCATCTCTACACACAAAAATTGATGTAGA [CACACA_site2811] | 7.75 ± 0.4
82 | ATATGTATTAAGTGTACACATATAATGTATTTTGTT [CACACA_site4177] | 8.02 ± 0.47
83 | TCATAATGAAAACAAGCACACATACATAAAATAAAA [CACACA_site9069] | 7.82 ± 0.57
84 | TAAATTATATTATGCACACTTAAAAATATATTTAAC [CACACA_site3512] | 10.4 ± 0.49
85 | TTTTTATATATCACGTGTACATATTTATTTTTACTC [XGTACX_site8049] | 8.05 ± 0.49
86 | GAATCATCCAAAATTGCATGCAAGGAAGAAGAAAAA [TGCATGCA_site764] | 7.83 ± 0.84
87 | ATATGTAATAATAAATGTACGAAACATTGAACGATG [XGTACX_site1266] | 7.97 ± 0.65
88 | CGTATGAAACATATATGTACTTATAAAAATATAACC [XGTACX_site7539] | 7.95 ± 0.4
89 | AAATCACCTTAAGAACGTACAAACAGAAAAAAATTA [XGTACX_site4623] | 7.83 ± 0.54
